{"source": "PubChem BioAssay AID493131", "about": "(Broad Institute, 2011)", "note": "Out of some 340,000 compounds screened, about 3,300 (0.97%) were called active. The shares of active, inactive and inconclusive entries below differ from those in the screen.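 Rule for the calls: active = mean activation above about 17%, with every replicate also reaching it (limit read from the data, passing the limit was not always enough); inconclusive = only one of the two conditions met; inactive = the rest.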", "data": [{"target": "Protein FosB (Mus musculus) (UniProt P13346)", "sequence (P13346 whole entry, looked up)": "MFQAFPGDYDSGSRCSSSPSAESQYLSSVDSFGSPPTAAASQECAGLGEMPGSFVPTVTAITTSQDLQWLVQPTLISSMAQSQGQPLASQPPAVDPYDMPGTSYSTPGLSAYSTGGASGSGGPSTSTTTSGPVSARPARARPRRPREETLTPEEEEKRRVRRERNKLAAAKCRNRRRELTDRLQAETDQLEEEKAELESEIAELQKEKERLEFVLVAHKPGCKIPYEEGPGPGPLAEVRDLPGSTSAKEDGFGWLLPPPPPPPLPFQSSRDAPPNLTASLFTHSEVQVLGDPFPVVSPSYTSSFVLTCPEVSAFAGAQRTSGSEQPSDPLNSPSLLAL", "assay": "enhancers of mouse delta FosB DNA binding – biochemical, fluorescence polarization, TAMRA-CDK5 oligo, single point, primary screen (AID 493131);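 note: fluorescence polarization rise as delta FosB binds a TAMRA Cdk5 AP-1 oligo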", "conditions": "purified delta FosB, at 25 µM, active compounds read high, percent of positive-control signal above neutral wells", "values": [{"smiles": "Cc1cc(N2CCN(C)CC2)ccc1NC(=O)c1c2c(nc3ccccc13)CCN(Cc1ccccc1)C2", "activation": "inconclusive: 19.3%"}, {"smiles": "CCn1c(=S)sc2c(=O)n(CC(=O)Nc3ccc(OC)c(Cl)c3)c(C)nc21", "activation": "active: 28.2%"}, {"smiles": "COc1ccccc1NC(=O)c1ccc(NC(=O)Cc2n[nH]c(=O)c3ccccc23)cc1", "activation": "active: 25%"}, {"smiles": "Cc1ccc(/C=N/NC(=O)c2ccc(C(=O)N/N=C/c3ccc(C)s3)o2)s1", "activation": "inconclusive: 16.6%"}, {"smiles": "CS(=O)(=O)N(CC(=O)N/N=C/c1cc2c(cc1Br)OCO2)c1ccccc1Br", "activation": "active: 26.6%"}, {"smiles": "O=C(Cc1nnc(NC(=O)c2ccccc2)s1)N/N=C/c1ccc(O)cc1", "activation": "inconclusive: 20.1%"}, {"smiles": "CCc1c(C(=O)N/N=C/c2ccc(OCc3ccc(F)cc3)c(OC)c2)nnn1-c1nonc1N", "activation": "inconclusive: 22.1%"}, {"smiles": "COCc1c(C(=O)N/N=C\\c2cccs2)nnn1-c1nonc1N", "activation": "inconclusive: 16.9%"}, {"smiles": "COc1ccc(-c2ccc([C@H]3[C@H]4C=CC[C@@H](C)[C@@H]4C(=O)N3Cc3ccccc3)c(F)c2)cc1", "activation": "inactive: 3.59%"}, {"smiles": "O=C(c1ccc(Cn2c(=O)[nH]c3ccccc3c2=O)cc1)N1CCN(c2ccccc2)CC1", "activation": "inactive: -4.87%"}, {"smiles": "CC(C)c1ccccc1OCC(O)CN(CC(O)COc1cccc2ccccc12)C(C)C", "note": "(configuration not stated)", "activation": "inconclusive: 16.9%"}, {"smiles": "c1ccc2c(c1)CCN2CCN1CCc2ccccc21", "activation": "inconclusive: 19%"}, {"smiles": "O=C(CCS(=O)(=O)c1ccccc1)Nc1ccc(-c2nc3ccccc3s2)cc1", "activation": "inconclusive: 16.2%"}, {"smiles": "Cc1cccc(Nc2nc(NCc3ccco3)c3ccccc3n2)c1", "activation": "active: 37.9%"}, {"smiles": "CCC1=NN2C(=N)/C(=C\\c3cccn3-c3ccc(Br)cc3)C(=O)N=C2S1", "activation": "inactive: -14.9%"}, {"smiles": "CCCOc1ccc(-c2c(C(=O)N/N=C/c3ccsc3)nnn2-c2nonc2N)cc1", "activation": "active: 20.3%"}, {"smiles": "N=c1c2cn[nH]c2nc(SCC(=O)c2ccc(Br)cc2)n1-c1ccc(Br)cc1", "activation": "inconclusive: 18.1%"}, {"smiles": "O=C(/C=C/c1ccccc1[N+](=O)[O-])NCCN1C(=O)S/C(=C\\c2ccc(F)cc2)C1=O", "activation": "inconclusive: 21.1%"}, {"smiles": "Cc1ccc(/C=C2\\SC(=S)N(CCC(=O)NNC(=O)c3cccc(O)c3)C2=O)cc1", "activation": "inconclusive: 21.6%"}, {"smiles": "COc1cccc(NC(=O)CN(C)S(=O)(=O)c2ccc3c(c2)n(C)c(=O)c(=O)n3C)c1", "activation": "inconclusive: 17.2%"}, {"smiles": "Nc1nnc(CC(=O)N/N=C/c2ccc(-c3ccc(Cl)cc3Cl)o2)s1", "activation": "inconclusive: 16.5%"}, {"smiles": "Cc1ccc(CCNC(=O)C2CCCN(S(=O)(=O)c3cccc4nsnc34)C2)cc1", "note": "(configuration not stated)", "activation": "active: 46.9%"}]}]}
